# Experimental data as given in PMC12040169 (PLOS Biology, 2025).
# The list shows a part of the results.
# Tested on: T1, C. trachomatis L2/434/Bu expressing GFP (CTL2-GFP)
# T1 construct: L2/434/Bu GFP intracellular growth in HeLa cells
# Set-up: species or system HeLa; C. trachomatis total inclusion area by high-content imaging, normalised to DMSO
# Conditions: total inclusion area; 28.5 h, 10 µM; inhibitor
# Summary of the method: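 Host cell viability was gauged from Hoechst-stained nuclei counts, while chlamydial growth was taken from total inclusion area and inclusion number per well. Cells were fixed and imaged by high-content microscopy once bulk GFP and resorufin fluorescence had been measured.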
row,Compound,% of control remaining
1,COC(=O)C1CCN(S(=O)(=O)c2ccccc2[N+](=O)[O-])CC1 [CBK264393],81.0596
2,Cc1ccc(NC(=O)Cn2cnc3c2c(=O)n(C)c(=O)n3C)nc1 [CBK133463],114.169
3,Cc1nc2ccccc2c2c1C(=O)N(c1cccc(C(=O)OCC(=O)c3ccccc3Cl)c1)C2=O [CBK265505],93.9634
4,CC1CCN(S(=O)(=O)N2CCCC2c2cccc(F)c2)CC1 (stereo not drawn) [CBK281957],107.322
5,CCN(CC)Cc1ccc2[nH]c(=O)c(CNCc3ccc(OC)cc3)cc2c1 [CBK132113],108.144
6,O=C(Cc1cccc2ccccc12)Nc1ccc(Br)cc1C(=O)O [CBK268286],88.5487
7,Cn1cc(CC(=O)N2CCN(c3ccccc3)CC2)c2ccccc21 [CBK200168],97.7785
8,C1CN=C(SCCCSC2=NCCCN2)NC1 [CBK278210B],87.4374
9,O=[N+]([O-])c1ccc(O)c(/C=N/c2ccc(Oc3ccc(/N=C/c4cc([N+](=O)[O-])ccc4O)cc3)cc2)c1 [CBK261093],96.71
10,N#Cc1ccc(N2C(=O)c3ccccc3S2(=O)=O)cc1 [CBK113195],93.3176
11,CNS(=O)(=O)c1cccc(C(C)NC(=O)N2CCSCC2)c1 (stereo not drawn) [CBK305825],107.686
12,COc1ccc(C(=O)N[C@@H]2CN(Cc3ccc(CO)o3)CCC[C@H]2O)cc1 [CBK289067],109.28
13,COc1nccnc1N1CCN(Cc2cccnc2)CC1 [CBK084213],93.2085
14,CC(C)c1ccc(COc2nccnc2OC2CCN(CCCC#N)CC2)cc1 [CBK161576],97.2819
15,CC1CN(C(C)N2CC(C)OC2=O)C(=O)O1 (stereo not drawn) [CBK022981],108.482
16,COc1cccc(C(=O)NCCC(=O)N2CCOCC2)c1 [CBK304639],93.0262
17,CS(=O)(=O)N(CC(=O)Nc1ccc(C(F)(F)F)cc1)Cc1ccc(Cl)cc1 [CBK268915],87.3785
18,O=C(Cc1ccc(F)cc1)N1CCCC(c2cc3ncccc3[nH]2)C1 (stereo not drawn) [CBK283414],89.8182
19,COc1cc(-c2cn3ccnc3c(NCC3CCOCC3)n2)cc(OC)c1OC [CBK037284],134.128
20,CN(C)CCNc1nc(-c2ccc(Cl)cc2)nc2ccccc12 [CBK263942],15.7313
21,CCCCC1C(=O)N(C)CCN1C(=O)NCc1cn2ccc(C)cc2n1 (stereo not drawn) [CBK306648],81.2332
22,COc1ccccc1NC(=O)CCCC(=O)O [CBK261323],86.4988
23,Cc1ccccc1C(=O)Nc1ccc(S(=O)(=O)Nc2nccs2)cc1 [CBK086797],92.4458
24,COc1ccccc1-c1nccnc1N[C@@H](CO)C(C)C [CBK089034],108.178
25,CCCCSc1nnc2nc(C)cc(C)n12 [CBK027588],50.3279
26,CN(Cc1ccc(-c2ccc(S(C)(=O)=O)cc2)cn1)C1CCN(C(=O)CC(C)(C)O)CC1 [CBK165684T],27.084

row,Compound,% of control remaining
1,CCc1[nH]c(=O)c(C(=O)N2CCc3[nH]c4c(C)cccc4c3C2)cc1C [CBK281586],100.34
2,Nc1ccccc1Sc1ccccn1 [CBK085854],81.3772
3,CS(=O)(=O)N(CC(=O)NC1CCCCCCC1)c1ccccc1 [CBK270112],108.932
4,O=C(Nc1cccc(Br)c1)/C(=C\c1cccnc1)NC(=O)c1ccccc1 [CBK261450],105.828
5,COc1ccccc1/C=C(/NC(=O)c1ccc(Cl)cc1Cl)C(=O)O [CBK263998],69.9678
6,CC(=O)c1ccccc1NC(=O)CSCC(=O)O [CBK057752],79.7316
7,Cc1ccc(OCC(=O)NC(=S)Nc2cc(C(=O)O)ccc2C)cc1 [CBK265000],116.7
8,COc1cnc(C(=O)NCc2ccccc2Cl)cc1O [CBK287993],100.537
9,O=C(CC(CN1CCN(CCN2CCCC2)CC1)C(=O)O)Nc1ccccc1 (stereo not drawn) [CBK286833],122.073
10,O=C(Nc1c(F)cc(F)cc1OC1CCNCC1)c1cnccn1 [CBK050273T],79.7001
11,O=C(NCc1nnc(-c2cccs2)o1)C1(c2ccccc2)CC1 [CBK284635],100.202
12,Cc1ccccc1CSCC(=O)NCCN1CCOCC1 [CBK269207],86.8042
13,CC(C)C(=O)Nc1c(-c2ccccc2)cnc2ncccc12 [CBK083713],66.974
14,CCCCC(Sc1ccc2nnc(-c3ccccn3)n2n1)C(=O)O (stereo not drawn) [CBK287622],110.696
15,CCC(C)NS(=O)(=O)c1ccc(OCC(=O)O)cc1 (stereo not drawn) [CBK266521],98.7545
16,O=C(O)c1ccsc1NS(=O)(=O)c1ccc(Oc2ccccc2)cc1 [CBK042259],106.468
17,CCCCNC(=S)N[C@H]1CC[C@@]2(C3=CC=CC4C=CC=CC34)CCN(C)[C@H]2C1 (stereo partly drawn) [CBK003610C],75.5742
18,O=C(O)c1ccc(Cl)c(-c2ccc(/C=N/Nc3ccc([N+](=O)[O-])cc3)o2)c1 [CBK078331],101.155
19,COc1nccnc1OC1CCN(Cc2ccc([N+](=O)[O-])cc2)CC1 [CBK084245],57.2533
20,O=C(CN1CCN(c2ccc(C(F)(F)F)cn2)CC1)Nc1ccc2c(c1)OCO2 [CBK074680],105.309
21,CC(=O)Nc1ccc(S(=O)(=O)NC2(C(F)(F)F)C(=O)Nc3c2c(=O)[nH]c(=S)n3C2CCCCC2)cc1 (stereo not drawn) [CBK268683],93.3962
22,Cc1cccc(C)c1N1CCN(CCn2c(=S)[nH]c3ccccc3c2=O)CC1 [CBK267998],92.973
23,O=c1[nH]cc(-c2ccccc2)cc1CNc1ccccc1-n1ccnc1 [CBK284769],93.7968
24,O=C(CCSc1ccc(Cl)cc1)Nc1ccc(S(=O)(=O)N2CCOCC2)cc1 [CBK264133],105.592
25,COCCNC(=O)c1ccc(-c2ccc(OC)cc2)nc1N1CCN(C(=O)c2ccco2)CC1 [CBK106010],108.839
